Biological target: the molecule itself
Experiment: SEC

B1: MBP-BRAF(S365A) (natural protein)
chain: not shown
B1 was tested, and the “stoichiometry N” value was 2.
